Assay results: PubChem BioAssay AID759 (NMMLSC, 2007)
Hit rate of the full screen: of about 190,000 compounds, about 270 (0.14%) were called active. The shares of active, inactive and inconclusive entries below differ from those in the screen.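 How the source made its calls: active means GTP binding activity at least 20% away from the 100% baseline, either lowered as inhibitor or raised as activator; inconclusive means flagged as likely green fluorescent, judged across all proteins in the well; inactive means the rest.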

What follows are molecules tested against GTPase HRas (Homo sapiens) (UniProt P01112) (assay: HRas wt fluorescent GTP binding changes, either direction – biochemical, wildtype, bead-based flow cytometry, multiplex, primary screen (AID 759;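 further: 0% = unlabeled GTP competition control and 100% = no-compound control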)). Conditions: GST-Ras wt beads, Bodipy-FL-GTP binding, at 10 µM, actives lie on both sides.
UniProt P01112, sequence (P01112 whole entry, looked up): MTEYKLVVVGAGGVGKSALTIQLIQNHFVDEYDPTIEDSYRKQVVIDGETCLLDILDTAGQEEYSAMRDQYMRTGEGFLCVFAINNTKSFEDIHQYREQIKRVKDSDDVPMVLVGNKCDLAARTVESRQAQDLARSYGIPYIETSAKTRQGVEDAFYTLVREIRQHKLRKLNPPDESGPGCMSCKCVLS

GTP binding activity, active:
COc1ccc(-c2nnc(SCC(=O)c3cccs3)o2)cc1 42%
O=C(CSc1ccc2nnc(-c3ccccn3)n2n1)Nc1nccs1 68%
C=CCNC(=O)c1cc2c(=O)n3cc(C)ccc3nc2nc1NCC1CCCO1 (stereo unspecified) 69%
CCn1cc(C(=O)O)c(=O)c2cc(F)c(N/N=C/c3ccccc3[N+](=O)[O-])cc21 63%
COc1cc(N=c2oc3c(C)ncc(CO)c3cc2C(N)=O)cc(OC)c1OC 68%
O=S(=O)(CC(CN1CCOCC1)N1CCOCC1)c1ccccc1 (stereo unspecified) 58%

GTP binding activity, inconclusive:
Cc1cs/c(=N/C(=S)Nc2ccccc2)n1C 103%
Cc1ccc(/C=C/c2nc3ccccc3[nH]2)o1 97%
CC(=O)Nc1ccc(SCC(=O)Nc2sccc2C#N)cc1 96%
CCOC(=O)CSc1nc2sc(C)c(C)c2c(=O)n1C 100%
O=C(NNC1CC(=O)N(c2cccc(Cl)c2)C1=O)c1cccs1 (stereo unspecified) 103%
CC(C)Nc1nc(NC(C)C)nc(Nn2cnnc2)n1 94%
COC(=O)CCSCC(=O)Nc1cc(C)on1 108%
COc1cccc(-c2c(C#N)c(N)nc3c2c(=O)nc2sccn23)c1 93%
COc1ccc(CC(=O)NNC(=O)c2cnccn2)cc1 101%
Cc1cc(NC(=O)CCC2CCCCC2)no1 103%
Fc1cccc(Cl)c1Cn1nnc(-c2ccc3c(c2)OCO3)n1 96%
CCc1nn2cc(C(=O)c3cc(Cl)ccc3O)cnc2c1-c1ccc(F)cc1 86%
Cn1c2ccc(Cl)cc2c2nc3ccccc3nc21 86%
Cc1ccc(S(=O)(=O)Oc2ccc(/C=C(/NC(=O)c3ccccc3)C(=O)O)cc2)cc1 92%
Cc1cc([N+](=O)[O-])c2c(c1C)C1C=CCC1C(c1ccccn1)N2 (stereo unspecified) 92%
CC(=O)OCC1OC(n2ccc(=O)[nH]c2=O)C(O)C1O (stereo unspecified) 103%
CCc1cc2c(N3CCN(c4nnc(CC)s4)CC3)ncnc2s1 96%
O=C(Nc1ccc(Br)cc1F)C1CCCO1 (stereo unspecified) 101%
COc1ccc(C(CC(=O)O)n2cnnn2)cc1 (stereo unspecified) 97%
CN(C)Cc1nc2ccccc2c(=O)n1CC(=O)Nc1cccc(S(=O)(=O)N2CCOCC2)c1 100%
CCN1/C(=C/c2ccc3cc(C)ccc3[n+]2C)Sc2ccc3sccc3c21 51%
COc1cc(/C=N\NC(=O)c2ccc(Cn3nc([N+](=O)[O-])c(Cl)c3C)o2)ccc1O 55%
CCOC(=O)CC(=O)CSc1ccc2nnc(-c3ccc(C)cc3)n2n1 108%
CNCC(=O)Nc1c(C)n[nH]c1C 103%
COc1cccc(C(=O)N2CCSC2=S)c1 98%
O=S(=O)(NCc1ccco1)N1CCCCCC1 96%
COCCn1c(SCC(=O)Nc2ccc(C)cc2C)nc2c(oc3ccccc32)c1=O 105%
Cn1c(C(=O)NCCCN2CCN(c3cccc(Cl)c3)CC2)cc2c(=O)n(C)c3ccccc3c21 82%
CCC(=O)Nc1ccc(C(=O)N/N=C/c2cc(Br)c(OC)cc2OC)cc1 97%
CCOc1cc(/C=C2/SC(=S)NC2=O)ccc1OC(=O)c1ccco1 81%
COc1c(C)cc(Br)cc1C(=O)Nc1cccc(NC(=O)c2ccco2)c1 102%
CCOC(=O)c1cc(-c2cccc([N+](=O)[O-])c2)n[nH]1 97%

GTP binding activity, inactive:
COc1ccccc1Nc1nccc(N(C)C)c1C#N 95%
Cc1cc(C)n2nc(SCCOc3ccccc3)nc2n1 84%
CC(C)(C)OC(=O)N[C@@H](Cc1ccccc1)c1nnc(S(=O)(=O)Cc2cccc(F)c2)o1 100%
CNC(=O)NC(=O)CSc1nnc(-c2ccc(F)cc2)n1CC1CCCO1 (stereo unspecified) 97%
COC(=O)C1CSC(C(=O)OC)N1C(=O)CN1CCN(c2ccccc2)CC1 (stereo unspecified) 100%
Cc1csc(NC(=O)C2CCCCC2C(=O)O)n1 (stereo unspecified) 98%
CC(=O)Nc1ccc(N(C(=O)c2ccco2)C(C(=O)NC2CCCC2)c2ccc(N3CCOCC3)cc2)cc1 (stereo unspecified) 99%
COc1ccc([N+](=O)[O-])cc1NC(=O)Cc1ccc(Cl)cc1 101%
C/C(=N\NC(=O)CCc1ccc(S(=O)(=O)N2CCOCC2)cc1)c1ccc(Br)cc1 98%
O=C(COC(=O)c1cccs1)NCC1CCCCC1 100%
CCC(C(=O)NC1CCCC1)N(C(=O)Cn1nnc(-c2ccc(C)o2)n1)c1cnc2ccccc2c1 (stereo unspecified) 104%
COCCn1c(=S)[nH]c2cc(C(=O)N3CCc4ccccc4C3)ccc2c1=O 102%
COc1ccc(/C=C2\SC(N3CCc4ccccc4C3)=NC2=O)cc1OC 98%
COc1ccc(NC(=O)/C(Cl)=C(/Cl)S(=O)Cc2ccccc2Cl)cn1 (stereo unspecified) 91%
Cc1ccccc1C(=O)c1cccn1CC(=O)NC(C)c1ccc2c(c1)OCCO2 (stereo unspecified) 99%
Cc1sc2nc(-c3ccccc3)oc(=O)c2c1C 96%
Cc1nc(C(=O)N(C)C)nn1-c1ccc(Cl)cc1Cl 102%
COc1ccc(-c2noc(C(=O)NCc3ccc(F)cc3)n2)cc1OC 92%
COC1=CCC2([N+](=O)[O-])CN(CCO)CC1([N+](=O)[O-])C2 (stereo unspecified) 101%
CCn1c2ccccc2c2nnc(SCC(=O)NCCOC)nc21 101%
Cc1cc(C)c2nc(SCC(=O)NCC3CCCO3)c(C#N)cc2c1 (stereo unspecified) 92%
Cc1ccc(S(=O)(=O)NCc2ccc(C(=O)NCCCN3CCC(Cc4ccccc4)CC3)cc2)cc1 99%
CC(/C=N\NC(=O)CN1CCN(S(=O)(=O)c2ccc(C)cc2)CC1)=C\c1ccccc1 99%
